According to the supplement of paper PMC4967469:
A lower IC50 marks a more sensitive line; fits outside the tested doses are given as limits. AUC is the area under the same curve over the 256-fold range up to the top dose, as a fraction: 1 means no effect, lower means more sensitive. Where the top dose is marked as inferred, it comes from the curve model; the source does not state it. For part of these data: Where an entry number is given, a second screen of the drug exists; the two often differ.

Tests used:
Assay in all cases: Viability of human cancer cell lines after 72 h of drug (GDSC screen)
[1] = compound: CC(C)=CC[C@@H](O)C1=CC(=O)c2c(O)ccc(O)c2C1=O [Shikonin]; conditions: top dose 16 µM; top dose inferred
Procedure: (§1)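 Human cancer cell lines in 384-well plates, medium with 10% serum, drug for 72 h over a 256-fold dose range (nine 2-fold or five 4-fold steps up to the top dose). Adherent lines were fixed and stained with the nucleic acid dye Syto60, suspension lines read with resazurin; signal relative to control wells, capped at 0 and 100%. One two-parameter sigmoid per drug and line, fitted in a mixed model over all curves with the slope shared within a line.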

[2] = compound: COc1cc(N2CCN(C)CC2)ccc1Nc1ncc2c(n1)N(C)c1ccccc1C(=O)N2C [XMD8-85]; conditions: top dose 8 µM; top dose inferred
Procedure: as §1

[3] = compound: Cc1cc(N2CCOCC2)cc2[nH]c(-c3c(NC[C@@H](O)c4cccc(Cl)c4)cc[nH]c3=O)nc12 [BMS-536924]
Procedure: as §1

[4] = compound: CCNc1cc(NC2CCC(O)CC2)nc(Nc2ccc3c(ccn3Cc3ccccc3)c2)n1 [CGP-082996 (CINK4)]; conditions: top dose 5.12 µM; top dose inferred
Procedure: as §1

[5] = compound: Cc1cccc(-c2[nH]c(C(C)(C)C)nc2-c2ccc3nccnc3c2)n1 [SB-525334]; conditions: top dose 20 µM; top dose inferred
Procedure: as §1

[6] = compound: COc1cc(-c2nn([C@H]3CC[C@H](N4CCN(C(C)=O)CC4)CC3)c3ncnc(N)c23)ccc1NC(=O)c1cc2ccccc2n1C [A-770041]; conditions: top dose 5.12 µM; top dose inferred
Procedure: as §1

[7] = compound: O=C(c1cc(Cc2n[nH]c(=O)c3ccccc23)ccc1F)N1CCN(C(=O)C2CC2)CC1 [Olaparib]
Procedure: as §1

[8] = compound: Cc1ccc(-n2nc(C(C)(C)C)cc2NC(=O)Nc2ccc(OCCN3CCOCC3)c3ccccc23)cc1 [BIRB 0796]; conditions: top dose 10 µM; top dose inferred
Procedure: as §1

[9] = compound: CNC(=O)c1ccc(Nc2cc(Nc3ccccc3S(=O)(=O)C(C)C)c3cc[nH]c3n2)nc1 [HG-5-113-01]; conditions: top dose 10 µM; top dose inferred
Procedure: as §1

[10] = compound: NC(=O)c1ccc(N(C(N)=O)c2c(F)cccc2F)nc1-c1ccc(F)cc1F [VX-702]; conditions: top dose 2 µM; top dose inferred
Procedure: as §1

[11] = compound: O=C1NC(=O)c2c1c(-c1ccccc1Cl)cc1[nH]c3ccc(O)cc3c21 [Wee1 inhibitor 681640]; conditions: top dose 2 µM; top dose inferred
Procedure: as §1

[12] = top dose 5.12 µM, screen: GDSC drug entry 62
[13] = top dose 5 µM, screen: GDSC drug entry 1017, top dose inferred
[14] = top dose 10 µM, screen: GDSC drug entry 1495
[15] = top dose 4 µM, screen: GDSC drug entry 1091, top dose inferred

Cell Line	AUC [1]	IC50 [1] [µM]	AUC [2]	IC50 [2] [µM]	AUC [3, 12]	IC50 [3, 12] [µM]	AUC [4]	IC50 [4] [µM]	AUC [5]	IC50 [5] [µM]	AUC [6]	IC50 [6] [µM]	AUC [7, 13]	IC50 [7, 13] [µM]	AUC [7, 14]	IC50 [7, 14] [µM]	AUC [8]	IC50 [8] [µM]	AUC [9]	IC50 [9] [µM]	AUC [3, 15]	IC50 [3, 15] [µM]	AUC [10]	IC50 [10] [µM]	AUC [11]	IC50 [11] [µM]
BC-3 (B-cell lymphoma, suspension)	0.424	0.636	0.898	> 8	0.842	3.04	0.976	> 5.12	0.983	> 20	0.981	> 5.12	–	–	–	–	–	–	–	–	–	–	–	–	–	–
CAL-148 (breast, suspension)	0.439	0.693	0.96	> 8	0.986	> 5.12	0.976	> 5.12	0.947	> 20	0.989	> 5.12	–	–	–	–	–	–	–	–	–	–	–	–	–	–
D-392MG (glioma, adherent)	0.508	1.06	0.784	4.78	–	–	–	–	0.861	> 20	–	–	0.933	> 5	0.933	> 10	0.973	> 10	0.854	> 10	0.949	> 4	0.977	> 2	0.898	> 2
D-542MG (glioma, adherent)	0.455	0.731	0.665	1.61	–	–	–	–	0.698	5.14	–	–	0.984	> 5	0.982	> 10	0.903	> 10	0.864	> 10	0.978	> 4	0.984	> 2	0.984	> 2
ECC12 (stomach, suspension)	0.656	3.05	0.826	6.61	–	–	–	–	–	–	–	–	–	–	–	–	–	–	–	–	–	–	–	–	–	–
EW-12 (Ewing sarcoma, suspension)	–	–	0.977	> 8	0.978	> 5.12	0.965	> 5.12	–	–	0.976	> 5.12	–	–	–	–	–	–	–	–	–	–	–	–	–	–
GAK (melanoma, adherent)	0.524	1.16	–	–	0.973	> 5.12	0.916	> 5.12	0.914	> 20	0.95	> 5.12	–	–	–	–	–	–	0.845	6.73	0.977	> 4	0.975	> 2	0.942	> 2
HCC1599 (breast, suspension)	0.357	0.379	0.864	> 8	0.966	> 5.12	0.946	> 5.12	0.971	> 20	0.969	> 5.12	–	–	–	–	–	–	–	–	–	–	–	–	–	–
HCC2998 (large intestine, adherent)	0.783	6.56	0.804	3.87	–	–	–	–	0.984	> 20	–	–	0.981	> 5	–	–	–	–	0.835	6.3	0.924	> 4	0.986	> 2	–	–
HCC-33 (small cell lung carcinoma, adherent)	0.453	0.743	0.981	> 8	0.986	> 5.12	0.982	> 5.12	0.9	> 20	0.988	> 5.12	–	–	–	–	–	–	–	–	–	–	–	–	–	–
